In publication PMC4678028, “Oligomerization of Baculovirus LEF-11 Is Involved in Viral DNA Replication” (PLoS ONE, 2015):
Results are given in words; binding and its absence hold for the method and conditions named. For some of these results: In cells and extracts the contact can be indirect. Some entries that bind do so weakly or less than the wild type. For some of these results: Sequences can lack the tags named with a protein.

How the values were obtained:
[1] = target: DsRed-LEF11 (82–112) (Bombyx mori nucleopolyhedrovirus (BmNPV)) (UniProt O92404); test: non-reducing SDS-PAGE with western blot; lysates of BmN-SWU1 cells transfected with pIZ-DsRed-LEF11 truncation or point mutant plasmids; loading buffer without β-mercaptoethanol; anti-DsRed blot
[2] = target: DsRed-LEF11 (72–91) (Bombyx mori nucleopolyhedrovirus (BmNPV)) (UniProt O92404); test: as above
[3] = target: DsRed-LEF11 (92–112) (Bombyx mori nucleopolyhedrovirus (BmNPV)) (UniProt O92404); test: as above
[4] = target: DsRed-LEF11 (2–41) (Bombyx mori nucleopolyhedrovirus (BmNPV)) (UniProt O92404); test: as above
[5] = target: T1, BmNPV late expression factor 11 (LEF-11), cMYC- or FLAG-tagged (Bombyx mori nucleopolyhedrovirus (BmNPV)), O92404; test: non-reducing SDS-PAGE with western blot; lysate of BmN-SWU1 cells transfected with pIZ-LEF11^cMYC, 72 h.p.t.; loading buffer without β-mercaptoethanol; 12% SDS-PAGE; anti-cMYC blot; settings: remark: other sources report otherwise
T1 chain: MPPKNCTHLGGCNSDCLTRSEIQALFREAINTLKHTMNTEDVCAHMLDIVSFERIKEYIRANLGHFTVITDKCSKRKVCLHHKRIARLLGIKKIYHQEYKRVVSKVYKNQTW

[6] = target: T1, BmNPV late expression factor 11 …; test: co-IP; BmN-SWU1 cells co-transfected with LEF11-FLAG and LEF11-cMYC, lysed at 72 h.p.t.; IP with anti-FLAG (mouse IgG as control), protein A+G agarose, 4°C; blot with anti-cMYC; settings: remark: other sources report otherwise
[7] = target: BmNPV late expression factor 11 (LEF-11), cMYC- or FLAG-tagged (Bombyx mori nucleopolyhedrovirus (BmNPV)) (UniProt O92404); test: reducing SDS-PAGE with western blot; same lysate of BmN-SWU1 cells transfected with pIZ-LEF11^cMYC; loading buffer with β-mercaptoethanol; anti-cMYC blot

DsRed-LEF11 (82–112) (from UniProt O92404 82-112) (domain or fragment)
binding [1]: no binding

DsRed-LEF11 (72–91) (from UniProt O92404 72-91) (domain or fragment)
binding [2]: no binding

DsRed-LEF11 (92–112) (from UniProt O92404 92-112) (domain or fragment)
binding [3]: no binding

DsRed-LEF11 (2–41) (from UniProt O92404 2-41) (domain or fragment)
binding [4]: no binding

B1: BmNPV late expression factor 11 (LEF-11), cMYC- or FLAG-tagged, O92404 1-112 (natural protein)
chain: T1 chain
binding [5]: binds | binding [6]: binds

B2: BmNPV late expression factor 11 (LEF-11), cMYC- or FLAG-tagged (protein, UniProt O92404 1-112)
chain: T1 chain
binding [7]: no binding (condition: with β-mercaptoethanol)
